Experimental data: patent publication US20040022772

Molecular target: p160 BCR (UniProt P11274)
UniProt P11274, sequence (P11274 whole entry): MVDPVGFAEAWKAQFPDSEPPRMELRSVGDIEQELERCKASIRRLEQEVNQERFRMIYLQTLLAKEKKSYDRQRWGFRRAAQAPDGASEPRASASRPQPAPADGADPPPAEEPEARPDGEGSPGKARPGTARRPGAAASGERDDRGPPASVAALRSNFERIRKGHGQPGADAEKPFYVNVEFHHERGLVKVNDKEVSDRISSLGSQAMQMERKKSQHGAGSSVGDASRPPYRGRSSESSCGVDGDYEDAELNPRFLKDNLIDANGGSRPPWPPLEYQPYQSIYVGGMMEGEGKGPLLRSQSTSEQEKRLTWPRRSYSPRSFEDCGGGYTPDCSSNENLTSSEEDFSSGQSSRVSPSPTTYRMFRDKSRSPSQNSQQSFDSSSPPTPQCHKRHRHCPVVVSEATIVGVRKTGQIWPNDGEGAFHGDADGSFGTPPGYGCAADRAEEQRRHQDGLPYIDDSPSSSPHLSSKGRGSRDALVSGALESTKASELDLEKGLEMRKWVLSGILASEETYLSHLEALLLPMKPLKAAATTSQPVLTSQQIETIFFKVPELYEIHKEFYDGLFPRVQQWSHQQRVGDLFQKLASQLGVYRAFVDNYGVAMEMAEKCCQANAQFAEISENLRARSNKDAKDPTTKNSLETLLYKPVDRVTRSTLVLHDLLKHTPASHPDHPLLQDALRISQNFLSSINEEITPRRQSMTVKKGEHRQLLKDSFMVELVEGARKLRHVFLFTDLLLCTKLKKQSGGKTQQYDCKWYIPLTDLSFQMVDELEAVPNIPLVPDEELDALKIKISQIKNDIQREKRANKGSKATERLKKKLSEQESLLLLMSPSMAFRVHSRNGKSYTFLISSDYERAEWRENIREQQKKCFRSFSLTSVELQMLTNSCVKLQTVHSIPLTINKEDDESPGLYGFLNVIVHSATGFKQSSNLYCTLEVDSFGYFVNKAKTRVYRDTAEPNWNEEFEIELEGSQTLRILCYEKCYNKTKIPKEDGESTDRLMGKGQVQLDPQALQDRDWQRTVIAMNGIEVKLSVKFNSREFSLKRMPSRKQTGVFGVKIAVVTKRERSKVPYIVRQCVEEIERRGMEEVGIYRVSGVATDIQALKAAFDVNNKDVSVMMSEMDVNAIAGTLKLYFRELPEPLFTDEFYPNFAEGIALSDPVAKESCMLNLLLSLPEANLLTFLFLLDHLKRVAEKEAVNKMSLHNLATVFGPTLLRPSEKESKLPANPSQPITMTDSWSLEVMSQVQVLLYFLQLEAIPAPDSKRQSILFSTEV

p210 BCR-ABL was tested, and the “serine/threonine transphosphorylation of casein by Bcr mixed in vitro with Bcr-Abl” value was “the level of casein serine/threonine phosphorylation was greatly inhibited”.
